Results taken from PubChem BioAssay AID504339 (National Center for Advancing Translational Sciences (NCATS), 2011).
Screen size: about 390,000 compounds; about 17,000 (4.4%) were called active. Inconclusive means that the source gave no clear call. Such entries were picked first, then a sample of the others. The call rests on the fitted dose curve; in most records, active means well fitted inhibition curve with a large enough effect; inconclusive means small, poorly fitted or top-dose-only effect; inactive means no such curve, though single readings can be large or run the other way. Where the call is inconclusive, the potency comes from a doubtful curve fit. Some structures have more than one record in an assay (separate samples or runs), and their calls can disagree.
Further: nearly all actives have a fitted effect of over 50% in size.
Potency means the concentration at half of the fitted maximal effect; tags describe the fitted curve by direction and shape.

Each compound was assayed against Lysine-specific demethylase 4A (Homo sapiens) (UniProt O75164) (assay: qHTS Assay for Inhibitors of JMJD2A-Tudor Domain). Settings: AlphaScreen JMJD2A-Tudor / H3K4me3 peptide binding; series mostly up to 114 µM.
Chain of UniProt O75164 (O75164 whole entry, looked up, the tested form may be a part): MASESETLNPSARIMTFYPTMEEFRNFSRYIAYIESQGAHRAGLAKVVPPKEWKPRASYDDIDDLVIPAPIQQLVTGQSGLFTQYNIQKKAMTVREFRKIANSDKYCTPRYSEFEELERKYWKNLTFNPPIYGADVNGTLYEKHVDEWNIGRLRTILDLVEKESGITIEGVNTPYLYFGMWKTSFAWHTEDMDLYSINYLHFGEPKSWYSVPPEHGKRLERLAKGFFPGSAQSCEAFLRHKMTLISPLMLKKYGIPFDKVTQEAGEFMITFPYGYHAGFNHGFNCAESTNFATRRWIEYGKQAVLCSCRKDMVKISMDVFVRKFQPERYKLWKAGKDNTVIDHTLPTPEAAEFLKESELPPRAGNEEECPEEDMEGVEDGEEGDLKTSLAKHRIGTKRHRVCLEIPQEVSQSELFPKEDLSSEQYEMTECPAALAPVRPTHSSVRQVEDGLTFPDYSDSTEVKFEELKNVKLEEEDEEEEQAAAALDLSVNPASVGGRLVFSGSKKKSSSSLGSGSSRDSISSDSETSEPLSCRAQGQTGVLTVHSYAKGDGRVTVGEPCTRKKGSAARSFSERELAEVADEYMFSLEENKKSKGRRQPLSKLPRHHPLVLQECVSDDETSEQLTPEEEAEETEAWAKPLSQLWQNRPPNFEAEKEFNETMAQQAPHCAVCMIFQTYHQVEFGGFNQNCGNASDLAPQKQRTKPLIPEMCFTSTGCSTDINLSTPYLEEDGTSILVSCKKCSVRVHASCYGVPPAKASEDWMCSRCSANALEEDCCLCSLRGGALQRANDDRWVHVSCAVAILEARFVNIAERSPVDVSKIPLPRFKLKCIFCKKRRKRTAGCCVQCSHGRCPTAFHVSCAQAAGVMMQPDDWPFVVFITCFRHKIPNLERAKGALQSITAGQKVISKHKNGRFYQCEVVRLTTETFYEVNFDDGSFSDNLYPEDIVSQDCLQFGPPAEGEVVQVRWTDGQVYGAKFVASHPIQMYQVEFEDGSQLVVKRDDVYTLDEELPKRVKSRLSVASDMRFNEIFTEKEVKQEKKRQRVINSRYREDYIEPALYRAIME
For CN1C(=O)/C(=C/C=C/c2ccco2)C(=O)NC1=S, the Potency was inconclusive: 3.98 µM [inhibitor, single point].
In the case of C=CCn1c(O)c(C(C)=NCc2cccnc2)c(=O)[nH]c1=O, the Potency is reported as inconclusive: 89.1 µM [inhibitor, single point].
For COc1ccc(NC(=S)NC(NC(=O)CF)C(Cl)(Cl)Cl)cc1[N+](=O)[O-] (stereo not drawn), the Potency was inconclusive: 56.2 µM [inhibitor, partial curve].
In the case of O=c1[nH]c(O)c(N=Nc2cccc(S(=O)(=O)N3CCOCC3)c2)c(=O)[nH]1, the Potency is reported as “inactive”.
In the case of O=C1NC(=O)C(=Cc2cc3c(cc2[N+](=O)[O-])OCO3)C(=O)N1, the Potency is reported as “inactive”.
With COc1ccc(N2C(=O)CS(=O)C(c3ccccc3)C2=O)cc1 (stereo not drawn) the Potency was active: 8.91 µM.
With O=[N+]([O-])NC1=NCCN1Cc1ccc(Cl)nc1 the Potency was inconclusive: 44.7 µM [inhibitor, partial curve].
For COC(=O)C1=C(C(=O)OC)SC2(S1)C(C(=O)OC)=C(C(=O)OC)Sc1c2ssc1=O, the Potency was active: 39.8 µM.
With Cn1ccnc1P(=S)(c1nccn1C)c1nccn1C the Potency was active: 31.6 µM.
In the case of CC1C(c2ccccc2)OC(=O)N1C (stereo not drawn), the Potency is reported as “inactive”.
In the case of COc1cccc(N2C(=O)NC(=O)C3(Cc4cc(C)ccc4N(C)C3)C2=O)c1 (stereo not drawn), the Potency is reported as inconclusive: 79.4 µM [inhibitor, single point].
Cc1cc(OC(C)C(=O)NCC2CCC(C(=O)O)CC2)c2c3c(c(=O)oc2c1)CCC3 (stereo not drawn) was tested, and the Potency was inconclusive: 35.5 µM [inhibitor, single point].
In the case of CSc1ncc(Cl)c(C(=O)O)n1 (tested in a mixture with another compound), the Potency is reported as active: 79.4 µM.
In the case of Fc1cccc(F)c1CN1CCN(c2ccc(Cl)cc2)CC1, the Potency is reported as “inactive”.
For Cc1cc(C=C2C(=O)N(C)C(=S)N(C)C2=O)c(C)n1-c1ccncc1, the Potency was active: 44.7 µM.
For O=c1[nH]c(=O)n(Cc2ccccc2)c(O)c1C=Nc1ccc(CN2CCOCC2)cc1, the Potency was “inactive”.
For O=C1NC(=O)C(=Cc2ccc(SC3CCCCC3)o2)C(=O)N1, the Potency was inconclusive: 28.2 µM [inhibitor, single point].
With COC(=O)C1=C(c2ccc(Cl)c(C(F)(F)F)c2)C[C@@H]2CC[C@H]1N2C(=O)NCCOc1ccc(OC)cc1 the Potency was “inactive”.
With COc1ccc2[nH]c(C)c(CCNCc3cc(OC)c(OC)c(OC)c3)c2c1 the Potency was active: 2.82 µM.
In the case of Cc1ccccc1C(=O)NNC(=S)NC(=O)COc1ccccc1, the Potency is reported as active: 4.47 µM.
For CN[C@H](C)[C@H](O)c1ccccc1, the Potency was “inactive”.
For CCCCOc1ccc(CN2C(=O)C(=O)c3cc(C)ccc32)cc1OC, the Potency was inconclusive: 17.8 µM [inhibitor, full curve].
CCCCCSc1cc(OC)c(CCNC)cc1OC was tested, and the Potency was inconclusive: 56.2 µM [inhibitor, partial curve].
In the case of CCCCCn1c(Sc2ccccc2)nc2c1c(=O)[nH]c(=O)n2C, the Potency is reported as inconclusive: 35.5 µM [inhibitor, full curve].
CN1CCN(c2ccc(S(=O)(=O)C(F)(F)F)cc2[N+](=O)[O-])CC1 was tested, and the Potency was “inactive”.
For COc1ccc(NC(=O)CN2C(=O)C(C)N=C(c3ccccc3F)c3cc(Cl)ccc32)c(OC)c1 (stereo not drawn), the Potency was “inactive”.
COc1ccc(N2C(=O)/C(=C/c3ccc(OC)c(OC)c3)C(=O)NC2=S)cc1 was tested, and the Potency was active: 56.2 µM.
In the case of O=C1N=c2ccccc2=C/C1=C\c1c(O)[nH]c(=S)[nH]c1=O, the Potency is reported as inconclusive: 89.1 µM [inhibitor, single point].
For CCOc1ccccc1CN1CCN(S(=O)(=O)CC)CC1, the Potency was active: 5.62 µM.
In the case of Nc1ccc(CCN2CCN(c3cccc(C(F)(F)F)c3)CC2)cc1, the Potency is reported as inconclusive: 50.1 µM [inhibitor, partial curve].
For COc1ccc([N+](=O)[O-])cc1N=Cc1c(O)n(CCc2ccccc2)c(=O)n(C(C)C)c1=O, the Potency was inconclusive: 7.08 µM [inhibitor, full curve].
CCN1CCN(C(=O)Cc2coc3cc(C)cc(C)c23)CC1 was tested, and the Potency was “inactive”.
CCN(CC)c1ccc(CNc2nc3ccccc3n2C)cc1 was tested, and the Potency was inconclusive: 100 µM [inhibitor, single point].
In the case of CCCCn1c(O)c(C=NCCN2CCCCC2)c(=O)[nH]c1=O, the Potency is reported as “inactive”.
For CN(C(=O)c1cccc(NC(=O)Cc2cccc([N+](=O)[O-])c2)c1)C1CCCCC1, the Potency was inconclusive: 63.1 µM [inhibitor, partial curve, poor fit].
In the case of CCCCCCn1c(O)c(C=Nc2ccccc2N2CCOCC2)c(=O)[nH]c1=S, the Potency is reported as “inactive”.
For O=C(Cc1ccccc1)OCCNC(=O)c1cccnc1, the Potency was inconclusive: 89.1 µM [inhibitor, single point].
With CCCS(=O)(=O)N1CCCC(C(=O)N2CCC3(CC2)OCCO3)C1 (stereo not drawn) the Potency was “inactive”.
With COc1ccccc1-n1c(O)c(/C=N/NC(=S)Nc2ccccc2)c(=O)[nH]c1=S the Potency was inconclusive: 28.2 µM [inhibitor, single point].
For O=C(C1CC(c2ccccc2O)=NO1)N1CCC2(CC1)OCCO2 (stereo not drawn), the Potency was active: 14.1 µM.
For CC(C)c1ccc(N2C(=O)NC(=O)/C(=C/C=C/c3ccco3)C2=O)cc1, the Potency was inconclusive: 31.6 µM [inhibitor, single point].
With CCC1(C)CC(C(N)=S)CCO1 (stereo not drawn) the Potency was active: 56.2 µM.
In the case of C[C@]12CCC(=O)C=C1CCC1C2CC[C@@]2(C)C1CC[C@@]2(O)CC#N (stereo partly drawn), the Potency is reported as “inactive”.
In the case of Cc1cc(/C=C2\C(=O)NC(=O)N(Cc3ccccc3)C2=O)c(C)n1C1CC1, the Potency is reported as inconclusive: 12.6 µM [inhibitor, full curve, poor fit].
For O=C1C(Cc2cnc[nH]2)NC(=S)N1c1ccccc1 (stereo not drawn), the Potency was inconclusive: 14.1 µM [inhibitor, partial curve].
For CN(C)CC1CSCCC1(O)c1ccc(Cl)cc1 (stereo not drawn), the Potency was inconclusive: 89.1 µM [inhibitor, single point].
In the case of CCCCOC(=O)C1=C(N)OC2=C(C(=O)CCC2)[C@]12C(=O)N(C)c1ccccc12, the Potency is reported as inconclusive: 89.1 µM [inhibitor, single point].
In the case of O=c1[nH]c2ccccc2n1C1CCN(CCCC(c2ccc(F)cc2)c2ccc(F)cc2)CC1, the Potency is reported as active: 39.8 µM.
